{"source": "PubChem BioAssay AID1508642", "about": "(National Center for Advancing Translational Sciences (NCATS), 2021)", "note": "About 200 (0.47%) of roughly 43,000 compounds were called active. Another 12% or so got no clear call; they are omitted. Calls come from the whole dose curve; as a rule, active = well fitted cell-killing curve with a large enough effect; inconclusive = small, poorly fitted or top-dose-only effect, or effect the other way; inactive = flat fitted curve, though single readings scatter. This is one part of the list. % is set by controls: 0 for no effect and ±100 for the full control effect.", "data": [{"assay": "Cell viability qHTS assay in S16 Pmp22-F2sN cells; note: nearly all actives have a fitted effect of over 65% in size", "conditions": "S16 Pmp22-F2sN Schwann cells (luciferase reporters placed in the Pmp22 gene) viability, CellTiter-Glo, 24 h; series mostly up to 57.5 µM; activity change, negative = cytotoxicity: at the top concentration", "excerpt": "Assay Provider: Jim Inglese Ph.D. National Center for Advancing Translational Science, National Institutes of Health, Rockville, MD CMT is a heterogeneous group of neurological disorders that affect approximately 1 in 2,500 people. In particular, the most common form of CMT, CMT1A is genetically linked to the duplication of the PMP22 gene which leads to Schwann cell overexpression, thus manifesting itself as a typical case of dose-sensitive diseases. To identify small molecule compounds that can mediate the expression of PMP22 we developed a phenotypic assay screening strategy by utilizing genome editing techniques to construct Schwann cell lines containing novel reporter technology to monitor the transcriptional or translational regulation of PMP22. For high sensitivity we use a bioluminescent reporter system embedded in the 3' UTR of the PMP22 gene (S16(c9) Pmp22-F2sN) to identify compounds that inhibit gene expression. […] We can further discriminate the effect of all transcriptionally active molecules on PMP22 translation or stability with an assay that incorporates a short NLuc peptide (HiBiT) at the C-terminus of expressed PMP22 (S16(f8) PMP22-HiBiT) allowing alpha complementation and luminescence detection of membrane-associated PMP22 protein. These assays were screened against the NCATS Sytravon Library Collection. Miniaturization of these assays to 1536-well plate format for quantitative high throughput screening (qHTS) yielded rich data sets immediately from the qHTS assay (S16(c9) Pmp22-F2sN), when compared with data from a cell viability assay (Cell TiterGlo) to identify compounds that decreased the output signals through cellular toxicity to streamline the selection process of actives for subsequent characterization using the HiBiT assay (S16(f8) PMP22-HiBiT).\nCell viability assay in S16 Pmp22-F2sN cells PROTOCOL TABLE (format as described by Inglese J, Shamu CE and Guy RK. 2007) SEQUENCE No. (e.g., 1, 2, 3, etc.); […] (e.g., Cells, Incubation, Reagent, etc.); VALUE and DESCRIPTION. 1. Cells. Add 500-1,000 cells in 4 uL in growth media (DMEM High Glucose, No Phenol Red media + 10% heat-inactivated FBS + 1% Pen/Strep supplemented media) per well into Greiner 1536-well white/solid bottom high base, TC-treated plates. 2. Compounds. Library compounds and controls added at 23nL per well, transferred by Pin Tool. 3. Incubation. Incubate plates at 37C, 5% CO2, 95% RH for 24 h. 4. Reagent. Add 3uL CellTiter-Glo per well of Greiner 1536-well plates. 5. Incubation. Incubate plates at room temperature for 15 min., protect from light. 6. Detector. FLuc luminescence measured using CCD-based camera (Viewlux). NOTES (numbers refer to Sequence numbers above; values are from representative experiments) 6. Luminescence Read: Clear filter; Exposure = 1 sec, Gain = High, Speed = Slow, Binning = 2X REFERENCES: 1. Inglese J, Shamu CE and Guy RK, Reporting data from high throughput screening of small molecule libraries, Nature Chemical Biology, 2007, 3(8): 438-441. doi.org/10.1038/nchembio0807-438 2. Yasgar A, Shinn P, Jadhav A, Auld DS, Michael S, Zheng W, Austin CP, Inglese J and Simeonov A, Compound Management for Quantitative High-Throughput Screening. J. Assoc. Lab. Auto., 2008, 13: 79-89. doi: 10.1016/j.jala.2007.12.004", "values": [{"smiles": "CCc1nnc(SCc2nc(-c3cccc(C)c3)oc2C)c2cc3sc(C)cc3n12", "activity change, negative = cytotoxicity": "inactive: 12.6%"}, {"smiles": "O=C(CSc1nccn1-c1ccc(F)cc1)Nc1cccc2ccccc12", "activity change, negative = cytotoxicity": "inactive: -1.99%"}, {"smiles": "COc1ccc(C(=O)Nc2cc(NC(=O)c3ccco3)ccc2OC)cc1Cl", "activity change, negative = cytotoxicity": "inactive: -3.67%"}, {"smiles": "O=C(COc1ccccc1Cl)Nc1nc(-c2ccc(F)cc2)ns1", "activity change, negative = cytotoxicity": "inactive: -0.286%"}, {"smiles": "COc1cccc(NC(=O)C2CCN(S(=O)(=O)c3c(C)noc3/C=C/c3cccs3)CC2)c1", "activity change, negative = cytotoxicity": "inactive: -23.6%"}, {"smiles": "COc1ccc2c(c1)CC(NC(=O)Nc1ccc(Br)c(C)c1)CO2", "note": "(stereo not drawn)", "activity change, negative = cytotoxicity": "inactive: 0.789%"}, {"smiles": "CCC(=O)N1c2ccc(S(=O)(=O)CCC(=O)N3CCN(c4ccc(F)cc4)CC3)cc2CC1C", "note": "(stereo not drawn)", "activity change, negative = cytotoxicity": "inactive: 5.05%"}, {"smiles": "O=C(Nc1cccc(NC(=O)c2ccc(Br)cc2)c1)c1ccccc1", "activity change, negative = cytotoxicity": "inactive: 25.6%"}, {"smiles": "CCCn1c(NCc2ccccc2F)nc2ccccc21", "activity change, negative = cytotoxicity": "inactive: 5.53%"}, {"smiles": "CCCCCNC(=O)c1ccc2c(=O)n(CCc3ccccc3)c(=O)[nH]c2c1", "activity change, negative = cytotoxicity": "inactive: -0.593%"}, {"smiles": "CCOC(=O)N1CCc2c(sc(NCc3cccc(F)c3)c2C(=O)Nc2ccc(OCC)cc2)C1", "activity change, negative = cytotoxicity": "inactive: -1.03%"}, {"smiles": "CCN(C(=O)c1cccn(Cc2cccc(Cl)c2)c1=O)c1ccccc1", "activity change, negative = cytotoxicity": "inactive: -1.55%"}, {"smiles": "Cc1ccc(-c2nc(Cn3c(SCc4ccc(F)cc4)nc4cccnc43)c(C)o2)cc1", "activity change, negative = cytotoxicity": "inactive: -18.1%"}, {"smiles": "COc1ccc(C(=O)Nc2nonc2-c2ccc(OC)c(OC)c2)cc1Cl", "activity change, negative = cytotoxicity": "inactive: -29.7%"}, {"smiles": "COc1ccc(-c2nnc(SCC(=O)Oc3cc(C)ccc3C)o2)cc1", "activity change, negative = cytotoxicity": "inactive: 2.61%"}, {"smiles": "CCOC(=O)c1cc2c(=O)n3ccccc3nc2n(CC2CCCO2)c1=NC(=O)c1ccc(F)cc1", "note": "(stereo not drawn)", "activity change, negative = cytotoxicity": "inactive: 2.24%"}, {"smiles": "CCc1cccc(NC(=O)Cn2nc(C)c3sc4ccccc4c3c2=O)c1", "activity change, negative = cytotoxicity": "inactive: -3.99%"}, {"smiles": "COc1ccccc1OC(C)C(=O)N1CCC(c2nc3ccccc3s2)CC1", "note": "(stereo not drawn)", "activity change, negative = cytotoxicity": "inactive: -18.7%"}, {"smiles": "COc1ccc(Cn2c(=O)c3ccccc3n3c(-c4ccc(C)cc4)nnc23)cc1", "activity change, negative = cytotoxicity": "inactive: 1.5%"}, {"smiles": "COc1ccc(Cn2c(C(=O)O)c(CNCc3ccc(C)o3)c3ccc(OC)cc32)cc1", "activity change, negative = cytotoxicity": "inactive: -26%"}, {"smiles": "Cc1ccc(C)c(NC(=O)Cn2cc(S(=O)(=O)NC(C)C)c(S(=O)(=O)NC(C)C)c2)c1", "activity change, negative = cytotoxicity": "inactive: -12.4%"}, {"smiles": "Cc1ccc(OCc2cc(=O)n3cc(C)sc3n2)c(NC(=O)c2ccco2)c1", "activity change, negative = cytotoxicity": "inactive: -5.36%"}, {"smiles": "COc1ccc(NC(=O)C(C)N2Cc3ccccc3C2=O)cc1OC", "note": "(stereo not drawn)", "activity change, negative = cytotoxicity": "inactive: 1.67%"}, {"smiles": "Cc1ccc2c(c1)-c1c(cnc3cc(-c4ccc(Cl)cc4)nn13)CO2", "activity change, negative = cytotoxicity": "inactive: -1.64%"}, {"smiles": "Cc1ccc2onc(CNC(=O)N3CCN(c4cc(Cl)ccc4C)CC3)c2c1", "activity change, negative = cytotoxicity": "inactive: -5.29%"}, {"smiles": "Cc1ccc(CCNC(=O)c2sc3nc4n(c(=O)c3c2C)CCCC4)cc1", "activity change, negative = cytotoxicity": "inactive: -1.33%"}, {"smiles": "COc1ccccc1CNC(=O)c1ccc2c(c1)nc(C)n2-c1cccc(C)c1", "activity change, negative = cytotoxicity": "inactive: -4.77%"}, {"smiles": "CC(C)OC(=O)c1ccc(NC(=O)CSc2nc(-c3cccs3)cc(C(F)(F)F)n2)cc1", "activity change, negative = cytotoxicity": "inactive: 9.87%"}, {"smiles": "Cc1ccc(COC(=O)c2[nH]c3c(c2C)C(=O)CC(c2ccc(Cl)cc2)C3)cc1", "note": "(stereo not drawn)", "activity change, negative = cytotoxicity": "inactive: -5.48%"}, {"smiles": "CC(C)CC(=O)n1nc(-c2ccco2)nc1NCc1ccc(Cl)cc1", "activity change, negative = cytotoxicity": "inactive: 10.1%"}, {"smiles": "Cc1ccc2c(c1)c(=O)c1ccccc1n2CCCC(=O)Nc1ccc(C)c(C)c1", "activity change, negative = cytotoxicity": "inactive: -3.84%"}, {"smiles": "Cc1cccc(CN2C(=O)c3ccccc3S(=O)(=O)c3ccc(C(=O)OCC4CCCO4)cc32)c1", "note": "(stereo not drawn)", "activity change, negative = cytotoxicity": "inactive: 14.7%"}, {"smiles": "CCc1ccc(CNC(=O)C2COc3ccccc3C2)cc1", "note": "(stereo not drawn)", "activity change, negative = cytotoxicity": "inactive: 12.3%"}, {"smiles": "COc1cc(NS(=O)(=O)c2cc3[nH]c(=O)[nH]c3cc2C)cc(OC)c1OC", "activity change, negative = cytotoxicity": "inactive: 10.4%"}, {"smiles": "CCOC(=O)c1cc(S(=O)(=O)N2CCN(c3ccccc3OC)CC2)[nH]n1", "activity change, negative = cytotoxicity": "inactive: -14.9%"}, {"smiles": "Cc1ccc(N2CC(NC(=O)C3CCCCC3)CC2=O)cc1", "note": "(stereo not drawn)", "activity change, negative = cytotoxicity": "inactive: 2.63%"}, {"smiles": "COc1ccc(NC(=O)CSCc2cc(=O)c3cc(Cl)ccc3[nH]2)cc1", "activity change, negative = cytotoxicity": "inactive: 6.68%"}, {"smiles": "CCn1c(CNC(=O)c2ccc(OC)cc2)nnc1SCC(=O)Nc1ccc(F)cc1", "activity change, negative = cytotoxicity": "inactive: 14%"}, {"smiles": "CCc1ccc(C(=O)c2cn(CC(=O)Nc3ccc(F)cc3)c3ccc(F)cc3c2=O)cc1", "activity change, negative = cytotoxicity": "inactive: 0.158%"}, {"smiles": "CCOc1ccc(C2CC(=O)Nc3c2c(=O)[nH]c2ncnn32)cc1", "note": "(stereo not drawn)", "activity change, negative = cytotoxicity": "inactive: -0.11%"}, {"smiles": "Cc1cccc(C(=O)Nc2cc(-c3ccccc3F)nn2-c2ccccc2)c1", "activity change, negative = cytotoxicity": "inactive: -20.1%"}, {"smiles": "COc1cccc(-c2nc(CS(=O)(=O)CC(=O)Nc3ccc(C)c(Cl)c3)c(C)o2)c1", "activity change, negative = cytotoxicity": "inactive: -3.3%"}, {"smiles": "COc1ccc(CCNC(=O)Cc2ccc(NC(=O)N3CCSc4ncccc43)cc2)cc1OC", "activity change, negative = cytotoxicity": "inactive: 5.4%"}, {"smiles": "Cc1cccc(NC(=O)c2cc3c([nH]c2=O)CC(c2ccccc2)CC3=O)c1", "note": "(stereo not drawn)", "activity change, negative = cytotoxicity": "inactive: 1.99%"}, {"smiles": "O=C(Cn1c(=O)n(Cc2ccc(F)cc2)c(=O)c2sc3ccccc3c21)Nc1ccc(F)cc1F", "activity change, negative = cytotoxicity": "inactive: 0.029%"}, {"smiles": "COc1cc(C(=O)NCc2nc(-c3ccc(Cl)cc3)no2)cc(OC)c1OC", "activity change, negative = cytotoxicity": "inactive: 11.6%"}, {"smiles": "COC(=O)CCNC(=O)N1CCN(c2nnc(C)c3c(C)n(-c4ccccc4)nc23)CC1", "activity change, negative = cytotoxicity": "inactive: 1.28%"}, {"smiles": "COc1cccc(CNC(=O)Cn2cccc2C(=O)c2ccccc2)c1", "activity change, negative = cytotoxicity": "inactive: 12%"}]}]}
